# Measured values published in publication PMC4336329 (PLoS ONE, 2015).
# The whole screen tested about 310,000 compounds, of which about 14,000 (4.5%) showed an effect of 50% or more. The effect is printed as a negative number. The list shows a part of the results.
# Molecular target: human ether-à-go-go-related gene (hERG) potassium channel (human, UniProt Q12809)
# Experiment: primary screen, population patch clamp on CHO cells stably expressing hERG
# 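Note: peak tail current of the secondary pulse compared with the same well before compound.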
# human ether-à-go-go-related gene (hERG) potassium channel, sequence (Q12809 whole entry, looked up): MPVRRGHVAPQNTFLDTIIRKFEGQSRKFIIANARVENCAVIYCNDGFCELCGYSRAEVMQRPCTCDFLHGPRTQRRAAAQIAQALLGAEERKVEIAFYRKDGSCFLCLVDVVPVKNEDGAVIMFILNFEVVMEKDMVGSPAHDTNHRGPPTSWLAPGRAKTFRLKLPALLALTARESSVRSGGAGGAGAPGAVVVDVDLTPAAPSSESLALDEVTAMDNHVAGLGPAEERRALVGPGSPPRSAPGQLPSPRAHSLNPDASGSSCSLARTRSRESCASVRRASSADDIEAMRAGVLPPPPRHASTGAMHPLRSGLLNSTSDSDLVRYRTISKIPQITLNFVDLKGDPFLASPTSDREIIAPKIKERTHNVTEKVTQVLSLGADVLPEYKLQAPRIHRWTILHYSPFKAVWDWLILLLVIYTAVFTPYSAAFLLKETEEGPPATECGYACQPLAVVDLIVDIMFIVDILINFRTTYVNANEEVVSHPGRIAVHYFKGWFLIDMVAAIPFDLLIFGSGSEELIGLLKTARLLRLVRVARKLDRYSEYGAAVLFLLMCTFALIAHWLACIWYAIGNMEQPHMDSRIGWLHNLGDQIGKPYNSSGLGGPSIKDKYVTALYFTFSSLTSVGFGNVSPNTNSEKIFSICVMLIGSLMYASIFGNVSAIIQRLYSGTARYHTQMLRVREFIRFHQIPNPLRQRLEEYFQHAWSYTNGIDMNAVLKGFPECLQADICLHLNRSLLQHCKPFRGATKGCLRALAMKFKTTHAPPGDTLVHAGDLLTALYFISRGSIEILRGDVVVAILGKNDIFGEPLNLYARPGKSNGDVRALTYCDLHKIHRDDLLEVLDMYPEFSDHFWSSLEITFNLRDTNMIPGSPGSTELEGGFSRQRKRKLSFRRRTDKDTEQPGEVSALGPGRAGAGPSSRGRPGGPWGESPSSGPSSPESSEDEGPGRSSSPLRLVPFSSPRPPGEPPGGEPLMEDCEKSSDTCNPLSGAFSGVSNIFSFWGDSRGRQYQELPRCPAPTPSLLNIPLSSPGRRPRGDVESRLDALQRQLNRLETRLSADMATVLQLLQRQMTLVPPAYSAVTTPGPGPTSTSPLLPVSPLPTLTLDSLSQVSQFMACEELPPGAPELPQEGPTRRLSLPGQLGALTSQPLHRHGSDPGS
row,SMILES,"hERG current change (%, negative = inhibition) at 10uM [%]"
1,O=C(NCC1CCCO1)c1ccc(Br)o1 (stereo not drawn),22.4
2,O=C(Nc1cccs1)Nc1c(F)c(F)cc(F)c1F,-1.92
3,O=C(OCC(=O)N1CCOCC1)c1ccc(Cl)nc1,15.3
4,CCOc1ccc(Cl)cc1/C=N/NC(=O)CNC(=O)c1ccccc1,3.26
5,COCCCNC(=O)c1cc(C(=O)c2ccccc2Br)c[nH]1,15.1
6,COc1ccc(CC(=O)Nc2ccc(C(=O)NCC(C)C)cc2)cc1,-0.731
7,O=C(COc1ccccc1Br)NCCC1=CCCCC1,-18.1
8,CCC(CC)c1nnc(NC(=O)CCCN2C(=O)c3ccccc3C2=O)s1,-18.3
9,O=C(/C=C/c1ccc(OC2CSC2)cc1)c1ccccc1,10.1
10,COc1ccc(C)cc1NC(=O)CCNC(=O)Cn1ccc2ccccc2c1=O,28.3
11,Cc1nc(NC(=O)c2ccco2)sc1-c1csc(Nc2ccc(Cl)cc2Cl)n1,1.15
12,Cc1cc(N2CCOCC2)nc(-c2ccc([N+](=O)[O-])cc2)n1,-14.1
13,Cn1cc(/C=C(\C#N)C(=O)Nc2cccc([N+](=O)[O-])c2)c2ccccc21,28.4
14,CC(NC(=O)CCc1nnc(-c2ccc(-c3ccccc3)cc2)o1)c1nccs1 (stereo not drawn),-12.2
15,COc1ccc(Nc2nc(-c3ccc(OC)cc3)c(CCC(=O)O)s2)cc1,2.3
16,O=C(c1cc2cc(F)ccc2[nH]1)N1CCN(C(=O)c2ccco2)CC1,-49.5
17,CCOc1ccccc1C(=S)NC1CCCCC1,13
18,COCCNC(=O)CN1C(=O)C(C)N=C(c2ccccc2)c2cc(Cl)ccc21 (stereo not drawn),-1.21
19,CCOC(=O)Nc1ccc2c(c1)N(C(=O)N(CC)CC)c1ccccc1CC2,-15.5
20,O=C(CCN1C(=O)c2ccccc2C1=O)Nc1cccc(F)c1,-13.4
21,Cc1ccccc1N(C(=O)CS(=O)CC(=O)Nc1ccc(F)cc1)C(C)C(=O)NC(C)(C)C (stereo not drawn),7.27
22,COc1ccccc1N(C)S(=O)(=O)c1ccc(Cl)c(C(=O)Nc2cccc(C)n2)c1,-9.97

row,SMILES,"hERG current change (%, negative = inhibition) at 10uM [%]"
1,COc1cccc(-c2c(C(=O)N/N=C(\C)c3cccnc3)nnn2-c2nonc2N)c1,17.5
2,CC(Oc1ccc2ccc(=O)oc2c1)C(=O)NCCCn1ccnc1 (stereo not drawn),28.5
3,Cc1c(Cl)c([N+](=O)[O-])nn1CCCC(=O)Nc1sc2c(c1C#N)CCC2,-16.3
4,COc1cc(SC)ccc1C(=O)Nc1ccc(C)cc1,8.29
5,C=CC[N+]1(CC#Cc2ccccc2)CCCC1.[Br-],18.4
6,CC(=O)NS(=O)(=O)c1ccc(N=NN2CCCCCC2)cc1,11.4
7,COc1ccc(NC(=O)C2CCN(S(=O)(=O)c3ccc4[nH]c(=O)oc4c3)CC2)c(OC)c1,3.47
8,CCCCNC(=O)c1cn(C)c2ccc(S(=O)(=O)N3CC(C)CC(C)C3)cc2c1=O (stereo not drawn),1.55
9,Cc1cc(NC(=O)CSc2nnnn2-c2ccc(C)c(C)c2)no1,16.2
10,CCCCn1c(N)c(N(CCOC)C(=O)c2cc(-c3ccco3)nc3ccccc23)c(=O)[nH]c1=O,2.93
11,O=C(Oc1ccc2c(=O)c(Oc3ccc4ccccc4c3)coc2c1)c1cncc(Br)c1,8.89
12,O=C(COC(=O)CNC(=O)c1sc2ccccc2c1Cl)NC1CCS(=O)(=O)C1 (stereo not drawn),-13.7
13,CCC(C)(C)NC(=O)CCCSc1nc2ccccc2[nH]1,-4.51
14,Clc1ccccc1OCCCn1ccnc1,11.4
15,CC(Sc1nc2sc3c(c2c(=O)n1-c1ccccc1)CCCC3)C(=O)O (stereo not drawn),7.27
16,NC(=O)c1ccc(-c2noc(-c3ccccc3F)n2)cc1,11.5
17,O=C(CCSc1ccccc1)NC1CCCCCC1,-4.31
18,CCOc1ccc(Cn2nnc(C(=O)NCc3ccccc3)c2N)cc1,11.6
19,CCn1c(C)c(C)c2cc(C(=O)N3CCN(c4cccc(C)c4C)CC3)ccc21,7.77
20,CC1CCCCC1NC(=O)COC(=O)c1ccc2c(c1)OCCO2 (stereo not drawn),1.98
21,COc1ccccc1NC(=O)CN1CCN(c2ccccn2)CC1,-27
22,Cc1ccc(OCC(=O)Nc2ccc3c(c2)nc(CCN2CCOCC2)n3C)cc1,-51.3

row,SMILES,"hERG current change (%, negative = inhibition) at 10uM [%]"
1,CCOc1ccc(S(=O)(=O)NCCC(=O)N2CCN(c3ccc(OC)cc3)CC2)cc1,-19.1
2,Cc1ccc(Nc2nc(-c3ccncc3)nc3ccccc23)cc1,14.3
3,CS(=O)(=O)c1ccc2nc(NC(=O)Nc3ccc(Cl)c(Cl)c3)sc2c1,6.88
4,Cc1ccccc1Nc1nc(N)nc(CN2CCN(Cc3ccc4c(c3)OCO4)CC2)n1,-68
5,CC(C)(C)C1CCC(OCC(O)CN2CCCC2)CC1.Cl (stereo not drawn),-30.8
6,COc1ccc(NC(=O)c2cn(-c3ccccc3)nc2-c2cc3ccccc3o2)cc1,6.67
7,CCN(CC)C(=O)CN1C(=O)NC2(CCc3ccccc3C2)C1=O (stereo not drawn),25.7
8,COc1ccccc1CCC(=O)N(Cc1ccccc1)c1c(N)n(Cc2ccccc2)c(=O)[nH]c1=O,-3.88
9,O=S(=O)(c1ccccc1)N1CCN(Cc2ccccc2)CC1,19.3
10,CC1CC(O)(CC(O)(c2ccccc2)c2ccccc2)C(C)CN1C (stereo not drawn),-12.2
11,C/C(=N/NS(=O)(=O)c1ccc(Cl)cc1)c1cccc(NC(=O)c2ccc(Cl)cc2Cl)c1,5.75
12,COc1cc2c(cc1OC)C(C)N(C(=O)c1cc3n(n1)C(C(F)(F)F)CC(c1ccco1)N3)CC2 (stereo not drawn),-1.64
13,CCOc1ncccc1C(=O)OCC(=O)N1CC(=O)Nc2ccccc21,8.81
14,COc1ccc(CN2CC(C(=O)N3CC(C)CC(C)C3)CC2=O)cc1 (stereo not drawn),-16.4
15,COc1cc(-c2nc3n(n2)C(c2ccc(F)cc2)C2=C(CCCC2=O)N3)cc(OC)c1OC (stereo not drawn),0.0473
16,Cc1cccc(NC(=O)CN(C)S(=O)(=O)c2cccc3cccnc23)c1,-19.2
17,CCOCCCNC(=O)CN(Cc1ccc(Cl)cc1)S(C)(=O)=O,3.99
18,CCc1cc(C(c2ccncc2)N2CCN(C)CC2)c(NC(=O)c2ccccc2)s1 (stereo not drawn),-40.2
19,Cn1c(Cn2c(=O)sc3ccccc32)nnc1SCc1cccc(F)c1,-11.6
20,Cc1c(C(=O)c2ccc(Cl)cc2Cl)cnc2cc3c(cc12)OCO3,10.6
21,CCOCCCn1c(SCC(=O)Nc2ccccc2OC)nc2ccccc2c1=O,-45
22,S=c1nc(C23CC4CC(CC(C4)C2)C3)nc2sccn12,9.55

row,SMILES,"hERG current change (%, negative = inhibition) at 10uM [%]"
1,COc1ccc2c(c1)C(=O)[C@H](O)[C@@H](c1ccc(OC)c(Br)c1)O2,12.9
2,CC(C)NC(=O)N1CCN(c2ccncc2S(=O)(=O)N2CCCCC2)CC1,5.19
3,Cc1c(Br)cnn1C(C)C(=O)N1CCN(c2ccc(F)cc2)CC1 (stereo not drawn),-37.8
4,CCOC(=O)c1c(N)n(CCN2CCCCC2)c2nc3ccccc3nc12,-25.1
5,CN(C)C(=O)c1nc2ccc(Cl)cn2c1CNCc1cccc(OC(F)(F)F)c1,-26.7
6,CCC(C)(C)NC(=O)C(OC(=O)c1ccco1)c1ccc(OC)cc1 (stereo not drawn),3.2
7,CCCn1c2c(c(O)c(C(=O)NC)c1=O)CCCC2,-6.66
8,CCn1c(Cc2ccccc2)nnc1SCC(=O)Nc1ccccc1N1CCOCC1,-30.5
9,CCN(CC)c1ccc(S(=O)(=O)N2CCCCC2)cc1NC(=O)C1CCC1,-15.3
10,Cc1ccccc1/C=N/Nc1nc2ccccc2[nH]1,12.9
11,CN1CCN(CCCC(=O)c2ccc(C3CCCC3)cc2)CC1.Cl.O,-50
12,CCCC(=O)NCCc1ccc(S(N)(=O)=O)cc1,1.43
13,Cc1cccc(NC(=O)Nc2cccc(Oc3c(F)c(F)c(F)c(F)c3F)c2)c1,8.83
14,Cc1c(C(=O)N2CCN(c3ccc(F)cc3)CC2)oc2c1C(=O)CCC2,-20.1
15,COC(=O)CCC(=O)N1CCCC(CNS(=O)(=O)c2ccc(OC)cc2)C1 (stereo not drawn),39.4
16,COc1ccccc1NC(=O)CCC(=O)OC(C)C(=O)c1ccccc1 (stereo not drawn),15.6
17,COc1cccc(NS(=O)(=O)c2ccc3c(c2)NC(=O)C(C)S3)c1 (stereo not drawn),-8.74
18,c1cncc(CSc2nnc3ccc(-c4ccncc4)nn23)c1,-26.7
19,O=C(Cc1ccc(Cl)cc1)Nc1cccc(-c2nnc(-c3ccco3)o2)c1,7.27
20,COc1ccc(CCN(C)C(=O)c2cc(-c3ccccc3)nc3ccc(C)cc23)cc1OC,-52.1
21,CCC(=O)Oc1cccc(C(=O)Nc2ccc(-c3nnc(-c4ccco4)o3)cc2)c1,17.5
